The campaign covered roughly 150,000 compounds. About 540 (0.36%) showed an effect of 50% or more. The list shows a part of the results.
Test system: Plasmodium falciparum
Assay: Primary screen in NF54 nanoGlo assay, in single point, at 2uM, 72h; a lower Z score goes with more inhibition
Format: functional, Erythrocyte
Settings: timepoint 72 hour

| SMILES | % Inhibition [%] | Z score |
| --- | --- | --- |
| COc1ccc(-c2cc(C(=O)Nc3ccc(N4CCN5CCCC5C4)cc3)c3c(C)noc3n2)cc1 (centres undefined) | 27 | -4.67 |
| COc1ccc2sc(Nc3cccc(C)c3C)nc2c1 | -4 | 0.57 |
| COc1ccc2nc(C)cc(C(=O)N[C@H](c3ccccc3)C3CC3)c2c1 | -9 | 1.65 |
| CCc1cc(CN2CC(O)C(Cc3ccnc4ccccc34)C2)on1 (centres undefined) | 2 | -0.4 |
| CC[C@H](O)CN1CCC(NC(=O)c2noc(-c3cccnc3)n2)CC1 | 22 | -3.8 |
| O=C(c1cc(-c2ccc3c(c2)OCO3)n[nH]1)N1CCC(Oc2ccc(Cl)cn2)CC1 | -16 | 2.85 |
| CN(CC(F)(F)F)C(=O)COc1ccc2ncccc2c1 | -8 | 1.82 |
| Fc1ccccc1CN1CCC(CNC2CCN3CCCC3C2)CC1 (centres undefined) | 14 | -2.92 |
| O=C(CNC1(c2ncccn2)CCOCC1)Nc1cccc(Cl)c1 | 3 | -0.41 |
| O=C(c1ccnc(OCC2CCOCC2)c1)N1CCC(Oc2cnccn2)CC1 | 0 | 0.03 |
| O=C(NCc1ccc([C@@H](O)c2cccs2)s1)c1nc2ccccc2s1 | -7 | 1.26 |
| c1ccc(CN2CCC(NCCCc3nc4ccccc4[nH]3)CC2)nc1 | 0 | 0.06 |
| COC(=O)CCN(C(=O)c1ccc(C)nc1C)c1ccccc1C | 2 | -0.43 |
| C[C@H]1C(=O)NCCN1S(=O)(=O)Cc1ccccc1C(F)(F)F | 6 | -0.97 |
| Cc1cc(F)ccc1NC(=O)CCNc1nccc(N2CCC[C@H](O)C2)n1 | -14 | 2.92 |
| c1ccc2nc(NCc3n[nH]c4ncccc34)cnc2c1 | -10 | 1.5 |
| COC(=O)CN(CCN1CCOCC1)Cc1ccc2cnccc2c1 | 1 | -0.15 |
| c1ccc(CCCN2CCCN(Cc3cnc4cnccn34)CC2)cc1 | 3 | -0.53 |
| CN(CCNC(=O)c1cccc(-c2ncc[nH]2)c1)CCc1ccccc1 | -7 | 1.06 |
| CC1CCN(C[C@H]2CCCN(Cc3noc(-c4cccc(Cl)c4)n3)C2)CC1 | 2 | -0.37 |
| COc1ccc2[nH]c(CNc3cc(N4CCC(O)CC4)ncn3)cc2c1 | 2 | -0.34 |

| SMILES | % Inhibition [%] | Z score |
| --- | --- | --- |
| CCN(CCOc1ccccc1Cl)C(=O)NCc1n[nH]c(N)n1 | 4 | -0.74 |
| O=C(NCC1CCN(CCc2ccc(F)cc2)CC1)c1cnc(N2CCCCC2)c2ccccc12 | -5 | 0.93 |
| O=C(CN1CCC(c2ccccc2)CC1)N1CCC2NCCCC2(CO)C1 (centres undefined) | -2 | 0.42 |
| CN(C)CCCN1CC2(CCC1=O)CCN(Cc1ccc3[nH]ccc3c1)CC2 | -9 | 1.54 |
| Cc1nc2ccc(CNC3CCN(c4ccc(F)c(F)c4)CC3)cc2[nH]1 | 25 | -4.47 |
| CN1CCC(N2CCN(Cc3c(Cl)ccc(O)c3Cl)CC2)CC1 | -11 | 1.6 |
| Cn1ncc2c(N)nc(N3CC4CCC3CN(Cc3ccccc3)C4)nc21 (centres undefined) | -3 | 0.51 |
| Cc1ccc(OC2CCN(c3nc(N)c4cnn(C)c4n3)CC2)nc1 | -5 | 0.89 |
| Nc1nccc(-c2cccc(C(=O)N3CC(O)C(N4CCCCC4)C3)c2)n1 (centres undefined) | -4 | 0.65 |
| Cc1nc2ccccn2c1CN(C)C(=O)CCCn1ccnc1 | 3 | -0.59 |
| CN(Cc1cc(-c2ccccc2)n[nH]1)C(=O)NC1CCN(C2CCCC2)CC1 | 5 | -1.17 |
| CCc1ccccc1Nc1nc(Nc2ccccc2CC)nc(N2CCC(C)CC2)n1 | 5 | -0.92 |
| CN1CCN(c2cc(N3CCC(Cc4ccc(=O)[nH]c4)CC3)nc(N)n2)CC1 | 0 | 0.06 |
| NC(=O)[C@@H]1CCCN1C1CCN(c2cc(N3CCCC3)ncn2)CC1 | -2 | 0.43 |
| COc1ccc(-c2cc3n(n2)CCCN(Cc2ccc(N(C)C)cc2)C3)cc1OC | 3 | -0.48 |
| CN(C)C1=NC2(CCN(Cc3nc(C(F)(F)F)no3)CC2)C(=O)N1 | 5 | -0.94 |
| COc1ccc2[nH]c(CN[C@H]3CCC(=O)N(Cc4ccccc4)CC3)nc2c1 | -2 | 0.52 |
| CCCCc1nc2c(OCC)cccn2c(=O)c1-c1ccc(N[C@H]2CCNC2)cc1 | -9 | 1.76 |
| Cc1oc(-c2cccs2)nc1CN(CC1CCN(C2CCCC2)CC1)C[C@H]1CCCO1 | 0 | 0 |
| O=C(c1ccco1)N1C[C@@H]2[C@@H](CN3CCC(Nc4ncccn4)CC3)[C@@H]2C1 | -6 | 0.88 |
| Cc1ccc(NCCCNc2ncc(F)c(N3CCCC3)n2)nc1 | -1 | 0.18 |

| SMILES | % Inhibition [%] | Z score |
| --- | --- | --- |
| Cc1ccncc1-c1cccc2[nH]ccc12 | 2 | -0.27 |
| OCCNc1cc(-c2ccc3c(c2)OCC(N2CCCC2)C3O)c2cc[nH]c2n1 (centres undefined) | -6 | 1.01 |
| Cc1cccc2c(-c3ccc(O)c(-c4ccno4)c3)c[nH]c12 | 10 | -2.1 |
| COc1ccc(C2CN(C(=O)C(C)(C)OC)CC2N)cc1 (centres undefined) | -8 | 1.56 |
| C[C@H](NC1CCN(C)CC1)c1coc2ccccc12 | 2 | -0.26 |
| COC(C)(C)CCC[C@H](C)CCNCCN1CCN(C(C)C)CC1 | 18 | -3.18 |
| COc1ccc(-c2nccn2CCc2c[nH]c3ccccc23)cc1O | -1 | 0.14 |
| O=C1c2ccccc2C(=O)C1[C@H](c1ccccc1)c1c[nH]c2ccccc12 | -5 | 0.72 |
| Cc1ccccc1Cn1cc(-c2ccncc2)cc1C(=O)N1CCN(C2CCCCC2)CC1 | -1 | 0.24 |
| O=C(Nc1cnn(-c2ccccc2F)c1)C1=CCCCO1 | -2 | 0.37 |
| CC(C)(C)OC(=O)N1CC[C@H](Nc2cc(-c3ccccc3)ncn2)C1 | -3 | 0.56 |
| CNc1cc([C@H]2C[C@@H](Nc3cnc4ccccc4n3)C2)nc(N)n1 | -3 | 0.5 |
| CS(=O)(=O)N1CCCC[C@@H]1CCNC(=O)c1cc(-c2ccncc2)[nH]n1 | -6 | 0.94 |
| c1cnc(-n2cncn2)c(CNc2cc(C3CCNCC3)ncn2)c1 | -2 | 0.43 |
| CC(C)Nc1cc(N2CC(CO)C(CN(C)CCO)C2)ncn1 (centres undefined) | -5 | 0.97 |
| Cc1ccc(C)c(-n2cnc(=O)n2Cc2c(C)noc2C)c1 | -10 | 1.58 |
| CCN(CC)C[C@H]1CCCN1c1ccc(-c2nc(C3CC3)no2)cn1 | -5 | 0.79 |
| COc1ccc(-c2cc(C(=O)NCc3ccc(N4CC(C)OC(C)C4)nc3)no2)c(F)c1 (centres undefined) | -12 | 2 |
| Cc1ncc(CNC[C@H](C)N(C)C2CC2)n1-c1ccccc1 | 6 | -1.27 |
| Oc1cc(/C=C/c2ccccc2)nc2ccccc12 | 11 | -1.87 |
| CS(=O)(=O)N1CCCCC[C@H]1C1CCN(Cc2ccc(F)c3cccnc23)CC1 | -1 | 0.19 |

| SMILES | % Inhibition [%] | Z score |
| --- | --- | --- |
| CC[C@H]1CN(C(=O)c2ccc(NCCc3c[nH]cn3)nc2)CCN1C(C)C | 0 | 0.08 |
| CN1CCC(C(=O)NCCCn2ccnc2)(N(CCc2c[nH]c3ccccc23)C(=O)Cc2ccccc2)CC1 | 20 | -3.45 |
| FC(F)(F)c1nc(NCC2CCN(c3ccncc3)CC2)c2nc[nH]c2n1 | -1 | 0.17 |
| CN(C)c1cc(C(=O)NCc2ccc(Cl)cn2)c2ccccc2n1 | 7 | -1.21 |
| CN1CCN(Cc2cccc(NC(=O)c3cncc(N4CCOCC4)c3)c2)CC1 | -7 | 1.61 |
| O=C(CN1CCCCCC1)N1CCC(CC2CC2)(c2noc(-c3cccnc3)n2)CC1 | -5 | 0.82 |
| Cc1c(CN(C)C[C@H](O)CN(C)C(=O)OC(C)(C)C)cnn1C | -8 | 1.42 |
| Cc1cc(C)n(CCN(C)C(=O)N[C@H]2CC(=O)N(c3ccc(F)cc3)C2)n1 | -6 | 1.25 |
| Cn1cc(CC(=O)N2CCCC[C@@H]2CCN2CCOCC2)c2ccccc21 | -6 | 1.13 |
| C[C@H](Nc1ncnc2[nH]ccc12)c1ccc(OCc2cccnc2)cc1 | -1 | 0.1 |
| COc1cc(=O)n2c(c1C(=O)N(C)Cc1cscn1)CCN(C(=O)c1cc(C)ccc1C)CC2 | -7 | 1.3 |
| COC(=O)c1ccc(F)cc1S(=O)(=O)Nc1cccc(C(=O)N(C)C)n1 | -5 | 0.99 |
| CS(=O)(=O)NCC1CCN(C(=O)c2cc(C3CC3)[nH]n2)CC1 | -3 | 0.73 |
| Cn1c(CN2CCc3ccc(Br)cc32)nnc1C1CC1 | 7 | -1.28 |
| C=C(C)COc1ccc2oc(-c3ccc(OC)cc3)c(C(=O)NCc3ccco3)c2c1 | -4 | 0.54 |
| COc1ccc(-c2cccc(C(=O)N3CCN(CC(N)=O)CC3)c2)c(F)c1 | -6 | 1.1 |
| CCCN1C[C@@H](NC(=O)c2ccc(-c3ccc4c(cnn4C)c3)cc2)CC1=O | -6 | 0.95 |
| N#CCCCN1CCN(C(=O)c2ccc(-c3cc(-c4ccc5c(c4)OCCO5)n[nH]3)cc2)CC1 | -8 | 1.34 |
| CCCS(=O)(=O)c1cc(N)cc2[nH]c(-c3ccc(Cl)cc3)cc12 | -5 | 0.9 |
